Out of some 420,000 compounds screened, about 50,000 (12%) were called active. The inconclusive results got no clear call from the source; some entries with a clear call stand among them for comparison. The call rests on the fitted dose curve; in most records, active means well fitted inhibition curve with a large enough effect; inconclusive means small, poorly fitted or top-dose-only effect; inactive means flat fitted curve, though single readings scatter. No potency is given beside an inconclusive call; the fits are too rough. Where a SMILES comes first, the peptide text is derived from it. [ ]: non-standard residue; d: D form. The star is where a group is joined. Hyp = O=C(O)[CH]1C[CH](O)CN1; Cbz = O=C(OCc1ccccc1)*; OBn = c1ccc(CO*)cc1
assay: qHTS for Inhibitors of human tyrosyl-DNA phosphodiesterase 1 (TDP1): qHTS in cells in presence of CPT; conditions: chicken DT40 Tdp1-/-;hTDP1 cells + 20 nM CPT, ATP luminescence, 48 h; activity change, negative = growth inhibition: at 46.2 µM (top of the series) unless noted; further: nearly all actives have a fitted effect of over 55% in size
Method in brief: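 Chicken DT40 Tdp1-/- cells stably complemented with human TDP1 were seeded at 400 cells/well in medium containing 20 nM camptothecin, exposed to pin-transferred compounds, and grown at 37 °C for at least 48 hr. Viability was read as ATP luminescence.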
On the % scale 0 is the no-effect control and ±100 the full control effect; potency means the concentration at half of the fitted maximal effect; tags describe the fitted curve by direction and shape.

Structure (SMILES) | Potency | activity change, negative = growth inhibition
O=C(Nc1ccccc1N1CCCCC1)c1ccc(Cl)c([N+](=O)[O-])c1 | inconclusive [inhibitor, partial curve, poor fit] | –
COc1ccccc1CCNC(=O)Nc1cccc([N+](=O)[O-])c1 | inconclusive [inhibitor, single point] | –
CCOC(=O)C1CCN(C(=O)c2cc(S(=O)(=O)N3CCCCC3)ccc2C)CC1 | inconclusive [inhibitor, full curve, poor fit] | –
Cc1ccc2c(CC(=O)Nc3ccc(F)c(S(=O)(=O)N4CCOCC4)c3)coc2c1 | inconclusive [inhibitor, single point] | –
C=CC[C@@H](CC(=O)N(CCO)Cc1ccccc1)C(=O)N[C@H](COC(=O)[C@@H](CC=C)Cc1ccc(F)cc1)c1ccccc1 | active: 14.6 µM | –
CCOC(=O)C1CCCN(S(=O)(=O)c2cc(OCC(N)=O)c(C)cc2Cl)C1 (stereo unspecified) | – | inactive: -15.3%
CC12CCC(c3c(C(=O)O)nn(-c4ccccc4)c31)C2(C)C (stereo unspecified) | – | inactive: -0.284%
CC(C)CC(=O)Nc1ccc(C(=O)COC(=O)Cc2n[nH]c(=O)c3ccccc23)cc1 | – | inactive: -1.18%
CCc1cccc(NC(=O)CN(C)S(=O)(=O)c2cccc3nsnc23)c1 | – | inconclusive: -30.7% [inhibitor]
O=C(Cn1c(=O)n(Cc2ccc3c(c2)OCO3)c(=O)c2oc3ccccc3c21)Nc1ccccc1 | – | inactive: -20.7%
COCCn1c(SCC(=O)N2CCCCC2)nc2c(c1=O)SC(C)C2 (stereo unspecified) | – | inactive: -8.69%
CSc1ccc(CCNC(=O)C2CCN(c3nc4ccccc4nc3C(F)(F)F)CC2)cc1 | active: 14.6 µM | –
COc1ccc(NC(=O)c2cccs2)cc1C(=O)N1CCN(c2ccccc2)CC1 | inconclusive [inhibitor, single point] | –
Cc1cc(S(=O)(=O)N2CCOCC2)ccc1OCC(=O)Nc1ccc(Br)cc1F | – | inactive: 9.29%
O=C(Cn1cnc2c(nnn2-c2ccccc2)c1=O)N1CCC(Cc2ccccc2)CC1 | inconclusive [inhibitor, single point] | –
O=C(NC(=S)NNC(=O)c1ccccc1O)c1cccs1 | active: 23.1 µM | –
C(=N\Nc1nc2ccccc2[nH]1)/c1ccccn1 | inconclusive [inhibitor, single point] | –
CCc1cccc(C)c1NC(=O)c1cccc(N(C)C)c1 | inconclusive [inhibitor, single point] | –
CSc1nc(N)nc2c1ncn2CC(=O)NCc1ccccc1 | inconclusive [inhibitor, single point] | –
O=C(NC(=S)Nc1cc(C(F)(F)F)ccc1Cl)c1ccccc1 | – | inconclusive: -30.5% [inhibitor]
COc1cc(/C=C/C(=O)c2ccc(Cl)s2)cc(OC)c1O | inconclusive [inhibitor, single point] | –
CCN(CC)S(=O)(=O)c1ccc(C(=O)Nc2nnc(NC(=S)Nc3ccccc3)s2)cc1 | inconclusive [inhibitor, single point] | –
CCCCn1nnnc1C1(C)CCC(=O)N1CCCn1ccnc1 (stereo unspecified) | active: 20.6 µM | –

Structure (SMILES) | Potency | activity change, negative = growth inhibition
Cc1ccc(N=Nc2c(C)[nH]n(-c3ccccc3)c2=O)c(C)c1 | inconclusive [inhibitor, single point] | –
Cc1ccc(Nc2nc(NCCCN3CCOCC3)nc(N)c2[N+](=O)[O-])cc1C | inconclusive [inhibitor, single point] | –
Cc1ccccc1CNC(=O)C1CCN(c2nnc(C)c3c(C)n(-c4ccccc4)nc23)CC1 | inconclusive [inhibitor, single point] | –
O=C(NCCO)c1ccc2c3n(nc2c1)-c1ccccc1CO3 | inconclusive [inhibitor, single point] | –
CCCCN(S(=O)(=O)c1ccccc1)S(=O)(=O)c1ccccc1 | – | inactive: -7.25%
OCCCNc1ncnc2sc3c(c12)CCN(Cc1ccccc1)C3 | inconclusive [inhibitor, single point] | –
O=C(c1cccc(F)c1)N1CCC2(CC1)CCN(C(c1ccccc1)c1ccccc1)CC2 | active: 14.6 µM | –
COc1ccc(OC)c(NC(=O)c2cccc(N3C(=O)C4C5CCC(C5)C4C3=O)c2)c1 (stereo unspecified) | active: 23.1 µM | –
O=C(Nc1ccc2nc(-c3ccccn3)[nH]c2c1)C1CCCCC1 | – | inconclusive: -31.3% [inhibitor]
COP(=O)(OC)c1ccc(NCc2cc(O)ccc2O)cc1 | active: 4.61 µM | –
CCn1c(C(=O)NCc2cccc(Br)c2)cc2oc3ccccc3c21 | inconclusive [inhibitor, single point] | –
Cc1cccc(NC(=O)CCSc2nncn2C)c1 | – | inactive: -0.123%
O=C1CC(c2cccs2)c2cc3c(cc2N1)OCCO3 (stereo unspecified) | inconclusive [inhibitor, single point] | –
CC(NC(=O)CNC(=O)OCc1ccccc1)C(=O)N1CC(O)CC1C(=O)OCc1ccccc1 (stereo not drawn) (Cbz-Gly-Ala-[Hyp]-OBn; configuration not given here) | inconclusive [inhibitor, single point] | –
c1ccc(CSc2nnc(-c3cccs3)o2)cc1 | – | inactive: -15.8%
O=C(Nc1nnc(-c2ccco2)o1)C1CCCCC1 | – | inactive: -8.25%
N#CC1=C(N)NC(=S)C(C(N)=O)C1c1ccc([N+](=O)[O-])cc1 (stereo unspecified) | – | inactive: 4.86%
Cc1ccc(Cn2c(SCC(=O)Nc3cc(C)on3)nc3ccccc3c2=O)cc1 | inconclusive [inhibitor, single point] | –
C=CCn1c(=O)c(C(=O)NC2CC2)c(O)c2cc(OC)c(OC)cc21 | inconclusive [inhibitor, single point] | –
O=c1[nH]c2c(-c3nc(-c4ccc(Cl)cc4)cs3)c(O)cn2c2ccccc12 | active: 3.98 µM | –
CCOC(=O)N/N=C/c1ccc(OCCSc2ccc(Cl)cc2)c(OC)c1 | active: 14.6 µM | –
O=S(=O)(Nc1ccc(Cl)cc1NS(=O)(=O)c1ccccc1)c1ccccc1 | inconclusive [inhibitor, single point] | –
O=C(Nc1ccc(NC(=O)C2CC2)nc1)c1ccncc1 | – | inactive: -12%

From PubChem BioAssay AID686979 (National Center for Advancing Translational Sciences (NCATS), 2013)
